Over roughly 5,400 compounds, “IFI” has its median near 2; the highest 2% begin near 22. Some of the results follow.
Assay: NOVARTIS: Inhibition Frequency Index (IFI) - the number of HTS assays where a compound showed > 50% inhibition/induction, expressed as a percentage of the number of assays in which the compound was tested.
Format: functional

| Compound | IFI |
| --- | --- |
| CCC(C(=O)NCCCCNc1ccnc2cc(Cl)ccc12)c1ccccc1 (centres undefined) | 6.6% |
| COc1ccc(C2CC(c3ccccc3Cl)n3ncnc3N2C(=O)C2CC2)cc1 (centres undefined) | 0% |
| O=c1c2c([nH]c3ccccc13)CCCCCCCCCC2 | 2.94% |
| CCOc1cc2c(cc1OCC)C(c1cc(Cl)ccc1O)NCC2 (centres undefined) | 0% |
| CCOC(=O)C1CCN(C(=O)C(=O)Nc2ccc3nc4n(c(=O)c3c2)CCCCC4)CC1 | 0% |
| CC(C)N(C(=O)Cn1ccc(=N)c2ccccc21)C(C)C | 0% |
| Cc1ccc(C)c2[nH]c(=O)c(CN(Cc3ccccc3)C(=S)NCCCN(C)C)cc12 | 6.19% |
| CCOC(=O)c1c[nH]c2ccc(C)cc2c1=O | 0% |
| COc1ccc(-n2nc(C(=O)NCc3ccccc3OC)c3ccccc3c2=O)cc1 | 3.61% |
| C(=Nc1cnc2ccccc2c1)c1c2n(c3ccccc13)CCCN2 | 0% |
| CCCN(C(=O)C(=O)Nc1ccc2nc3n(c(=O)c2c1)CCCCC3)c1ccc(OCC)cc1 | 0% |
| Cc1ccc2c(nc3sc(=Cc4ccc(-c5ccccc5F)o4)c(=O)n32)c1C | 3.57% |
| CN(Cc1ccccc1)c1cc(-c2ccccn2)nc(-c2ccccn2)n1 | 7.69% |
| Cc1n(C)c2ccccc2[n+]1CC(=O)c1ccccc1 | 0% |
| Oc1ccc(-c2ccc(F)cc2)cc1CNC1CCCCC1 | 1.74% |
| COc1cccc(C(=O)Oc2ccccc2-c2nc3cc(C)ccn3c2NC(C)(C)CC(C)(C)C)c1 | 3.74% |
| CC(C)(C)c1cc(CCC(=O)Nc2c3c(nc4ccccc24)N(c2cccc(Cl)c2)CC3)cc(C(C)(C)C)c1O | 4.54% |
| COC(=O)C1=CN(Cc2ccc(Cl)cc2)C=C(C(=O)OC)C1c1ccc(Cl)c(Cl)c1 | 3.53% |
| C=CCSc1oc(-c2ccco2)nc1[P+](c1ccccc1)(c1ccccc1)c1ccccc1 | 23.1% |
| Cc1ccc(S(=O)(=O)NC(Cc2ccccc2)C(=O)N2CCC(C3CCN(C(=O)c4ccc([N+](=O)[O-])o4)CC3)CC2)cc1 (centres undefined) | 7.69% |
| CC(C)CCn1nc(C(=O)N2CCOCC2)c2c1CCN(C(=O)c1ccc(N3CCOCC3)cc1)C2 | 2.56% |
| CCc1c(C)nc2cc(-c3cc(OC)cc(OC)c3)nn2c1NCCCn1ccnc1 | 0% |

| Compound | IFI |
| --- | --- |
| COCCOC(=O)C1=C(C)NC2=C(C(=O)CC(c3ccc(OC)c(OC)c3)C2)C1c1ccccc1F (centres undefined) | 2.35% |
| CCCn1c(SCCNC(=O)NCC)nc(-c2ccccc2)c1-c1ccccc1 | 0% |
| CCN(CC)CCCNC(=S)N(Cc1cc2ccc(OC)cc2[nH]c1=O)C1CCCCC1 | 3.57% |
| Cc1c(Cl)cccc1NC(=S)N(CCCN(C)c1ccccc1)Cc1cccn1Cc1ccc(Cl)cc1 | 6.45% |
| CC(C)COc1ccc(C(=O)N/C(=C/c2ccccc2)C(N)=O)cc1 | 0% |
| NCCNc1cc(-c2ccccc2)nc2ccccc12 | 4.42% |
| CCc1cccc(NC(=S)N2CCCC2c2ccccc2C(F)(F)F)c1 (centres undefined) | 3.7% |
| Cc1cccc(CCNc2cc(C)nc3nc(C)nn23)c1 | 0% |
| c1csc(CN2CCc3nc(N4CCCCC4)sc3C2)c1 | 6.94% |
| CCOc1ccc(NC(=O)CSc2nncc(O)n2)cc1 | 7.69% |
| CCCOC(=O)C1=C(C)NC2=C(C(=O)CC(c3ccc(OC)c(OC)c3)C2)C1c1ccc(O)c(OCC)c1 (centres undefined) | 0% |
| Oc1ccc(CN2CCCCC2)nc1-c1ccccc1 | 3.03% |
| Cn1ccnc1C1CCCCN1C(=O)c1cc(COc2ccc(F)cc2Cl)on1 (centres undefined) | 0% |
| CCC(C)(C)n1nnnc1C(c1cc2ccc(C)cc2[nH]c1=O)N1CCN(c2ccccc2)CC1 (centres undefined) | 1.8% |
| COc1ccc2c(c1)N(C(=O)CSc1nc3ccccc3o1)C(C)(C)c1ssc(=S)c1-2 | 1.15% |
| N=C(N)c1ccc(OCCCOc2ccc(C(=N)N)cc2)cc1 | 5.56% |
| CCn1ncc(CN2CCC(C(=O)Nc3ccccc3-c3cccc(OC)c3)CC2)c1C | 0% |
| Cc1ccc(NC(=O)c2sc3nc4c(c(-c5ccc(C)cc5)c3c2N)CCC4)cc1 | 7.41% |
| O=c1c2ccccc2[nH]c2ccc(I)cc12 | 0% |
| Cc1ccc(NC(=O)c2ccc(NCCCN3CCCCCC3)c([N+](=O)[O-])c2)cc1F | 0% |
| CCN(CC)c1nc(NN=Cc2cccc([N+](=O)[O-])c2OC)nc(Nc2ccccc2)n1 | 5.2% |
| CCOC(=O)C1=C(C)NC2=C(C(=O)CC(c3ccc(OC)c(OC)c3)C2)C1c1c(F)cccc1Cl (centres undefined) | 0% |

| Compound | IFI |
| --- | --- |
| O=C1CSC(=NN=Cc2cccnc2)N1c1ccccc1 | 0% |
| CC(=O)Nc1nc(C)c(-c2csc(Nc3ccc(C)cc3)n2)s1 | 3.33% |
| COc1cccc2c1OCC(CN1CCC(C(=O)Nc3ccc(-n4cccn4)cc3)CC1)=C2 | 0% |
| COc1cccc(CCN2Cc3ccc(C(=O)NC(C)C)cc3N=C2c2cccnc2)c1 | 1.22% |
| CCc1nc2nc(C)cc(NCCc3cccc(C)c3)n2n1 | 0% |
| Cc1noc(-c2ccc(O)cc2O)c1-c1ccc2c(c1)OCCO2 | 6.02% |
| CCN1C(=Cc2sc3ccc(Cl)cc3[n+]2CC)C=Cc2cc(OC)ccc21 | 15.4% |
| Cc1cc2nc3ccc(N(C)C)cc3[n+](-c3ccccc3)c2cc1N | 9.52% |
| OC(CCNC1CCCCC1)COc1cccc2ccccc12 (centres undefined) | 0% |
| Oc1ccc(-c2ccccc2)cc1CN1CCC(c2ccccc2)CC1 | 2% |
| OCCSc1nc(-c2ccccc2)nc2ccc(F)cc12 | 1.56% |
| COC(=O)C1=C(C)NC2=C(C(=O)CC(c3ccc(OC)c(OC)c3)C2)C1c1cccc(O)c1 (centres undefined) | 0% |
| COc1ccccc1NC(=O)N(Cc1ccccc1)C(C)c1nc2ccccc2c(=O)n1-c1cc(C)ccc1OC (centres undefined) | 2.5% |
| CCN1/C(=C/c2sc3ccccc3[n+]2CC)Sc2ccccc21 | 21.9% |
| CC(O)c1ccc(NC(=O)c2cnn3c2NC(c2ccco2)CC3C(F)(F)F)cc1 (centres undefined) | 0% |
| CCc1ccc2[nH]c(=O)c(CN(CCCN(CC)CC)C(=S)NCCCN(C)C)cc2c1 | 2.73% |
| COc1ccc(CCN(C(=S)Nc2ccccc2)C2CC(=O)N(c3ccc(F)cc3)C2=O)cc1OC (centres undefined) | 0% |
| O=C1CN(C(=O)CCC2CCCC2)C(c2ccc(F)cc2)c2cc(F)ccc2N1 (centres undefined) | 2.63% |
| COc1ccc(C2C(C(=O)c3ccccc3)=C(O)C(=O)N2c2cccc(Cl)c2)c(OC)c1 (centres undefined) | 0% |
| CCCCOc1ccc(C(O)C(CN2CCCCC2)c2ccccc2)cc1 (centres undefined) | 0% |

— ChEMBL document CHEMBL1156829
